# PubChem BioAssay (NCATS)
# The shares of active, inactive and inconclusive entries below differ from those in the screen. No potency is given beside an inconclusive call; the fits are too rough. The source made the active and inactive calls. Calls come from the whole dose curve; as a rule, active = well fitted inhibition curve with a large enough effect; inconclusive = small, poorly fitted or top-dose-only effect; inactive = no such curve, though single readings can be large or run the other way.
# Molecular target: Retinal dehydrogenase 2 (Homo sapiens) (UniProt O94788)
# Experiment: qHTS for Inhibitors of the Aldehyde Dehydrogenase Family (ALDH1A2) Confirmation screens (AID 2061314)
# Conditions: ALDH1A2 enzyme inhibition qHTS confirmation; activity, negative = inhibition: at 45.9 µM (top of the series) unless noted; series mostly up to 45.9 µM
# % is set by controls: 0 for no effect and ±100 for the full control effect; potency is the fitted concentration of half-maximal effect; tags give direction and shape of the fitted curve.
# Note: nearly all actives have a fitted effect of over 65% in size.
Compound,"activity, negative = inhibition",Potency
CC(C)(Cc1ccccc1)NCC(O)c1ccc(O)c(NS(C)(=O)=O)c1 (configuration not stated),inactive: -10.1%,
CC[C@H](CO)Nc1nc(NCc2ccc(-c3ccccn3)cc2)c2ncn(C(C)C)c2n1,,"inconclusive [inhibitor, partial curve, poor fit]"
Fc1ccc(-c2nc(C3CCNCC3)sc2-c2ccnc(NC3CC3)n2)cc1,inactive: -27.8%,
CC(C)Nc1cc(-c2c[nH]c(C(=O)N[C@H](CO)c3cccc(Cl)c3)c2)c(Cl)cn1,,"inconclusive [inhibitor, partial curve]"

# Molecular target: Aldehyde dehydrogenase 1A1 (Homo sapiens) (UniProt P00352)
# Experiment: qHTS for Inhibitors of the Aldehyde Dehydrogenase Family (ALDH1A1) Confirmatory screens (AID 2061316)
# Conditions: ALDH inhibition qHTS; activity change, negative = inhibition: at 47.3 µM (top of the series); series mostly up to 47.3 µM
Compound,"activity change, negative = inhibition",outcome,Potency
CC(C)(Cc1ccccc1)NCC(O)c1ccc(O)c(NS(C)(=O)=O)c1 (configuration not stated),inactive: -14.5%,,
Fc1ccc(-c2nc(C3CCNCC3)sc2-c2ccnc(NC3CC3)n2)cc1,,inactive,
CC(C)Nc1cc(-c2c[nH]c(C(=O)N[C@H](CO)c3cccc(Cl)c3)c2)c(Cl)cn1,,,"inconclusive [inhibitor, partial curve, poor fit]"
